The campaign covered roughly 45,000 compounds. About 65 (0.1%) were called active. Calls come from the whole dose curve; as a rule, active = well fitted activation curve with a large enough effect; inconclusive = small, poorly fitted or top-dose-only effect; inactive = no such curve, though single readings can be large or run the other way. The list shows a part of the results.

UniProt P54803, sequence (P54803 whole entry, looked up): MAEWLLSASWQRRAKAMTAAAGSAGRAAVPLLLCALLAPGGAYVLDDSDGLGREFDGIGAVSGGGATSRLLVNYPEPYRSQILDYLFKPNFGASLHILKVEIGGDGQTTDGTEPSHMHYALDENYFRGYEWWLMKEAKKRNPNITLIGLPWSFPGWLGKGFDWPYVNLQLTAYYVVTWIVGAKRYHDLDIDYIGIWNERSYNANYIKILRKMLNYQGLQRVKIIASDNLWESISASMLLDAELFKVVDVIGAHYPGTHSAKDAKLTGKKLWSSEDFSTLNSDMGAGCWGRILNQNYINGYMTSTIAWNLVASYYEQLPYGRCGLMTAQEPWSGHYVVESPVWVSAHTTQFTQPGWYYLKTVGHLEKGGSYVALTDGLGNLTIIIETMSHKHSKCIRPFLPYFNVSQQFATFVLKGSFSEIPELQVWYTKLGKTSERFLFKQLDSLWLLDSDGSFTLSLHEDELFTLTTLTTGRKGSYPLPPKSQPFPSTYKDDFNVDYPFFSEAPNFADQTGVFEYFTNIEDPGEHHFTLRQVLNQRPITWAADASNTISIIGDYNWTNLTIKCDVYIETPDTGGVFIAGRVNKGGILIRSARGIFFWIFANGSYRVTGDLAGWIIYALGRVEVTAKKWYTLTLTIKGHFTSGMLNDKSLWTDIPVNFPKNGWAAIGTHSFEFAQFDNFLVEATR

This assay addresses Galactocerebrosidase (Homo sapiens) (UniProt P54803). As to the kind of experiment: A Novel Cell-Based Assay to Identify Small Molecules for B -Galactocerebrosidase. Note: 0% is about no effect; nearly all actives have a fitted effect of over 65% in size. The note with it: 145M-Twi-hGALC-G270D cells (Twitcher mouse brain line with human GALC G270D), HMU-beta-Gal fluorescence, 48 h; series mostly up to 57.5 µM; activation: at the top concentration. In short, it runs like this:
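Fluorescence readout: HMU-β-gal cleavage by mutant GALC (0.1 mM final, citrate/phosphate pH 5.2 with 1 mg/mL taurocholate), stopped with carbonate/bicarbonate plus Triton X-100. Cells: murine Twitcher 145M-Twi expressing human G270D GALC; qHTS for activators.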
For `Cc1ccc(O)c(C(CC(=O)NCC2(c3ccccc3)CCCC2)c2ccccc2)c1` (stereo unspecified), the “activation” value is inactive: -18.8%. As for `Cc1ccccc1NC(=O)c1nc(-c2ccncc2)no1`, the figure is inactive: -4.66%; as for `CCC(C(=O)OCc1cc(=O)n2nc(CCOC)sc2n1)c1ccccc1` (stereo unspecified), inactive: -12.1%. For `COc1cccc(N2CCN(c3nc4ccc(C(=O)c5ccccc5)cc4n4c(C)nnc34)CC2)c1`, the “activation” value is inactive: 5.72%. On to `Cc1ccc(NC(=O)Cn2c(CCC(=O)O)ccc2-c2cccs2)cc1`, for which the “activation” value is inactive: -9.54%. Regarding `CCOc1cc(C2c3c(oc4ccccc4c3=O)C(=O)N2Cc2ccc3c(c2)OCO3)ccc1O` (stereo unspecified), the “activation” value was inactive: -23.6%. Consider `Cc1ccc(-n2ncc(C(=O)Nc3ccc(C)c(F)c3)c2C2CCN(C(=O)OC(C)(C)C)CC2)cc1C`, for which the “activation” value was inactive: -2.69%. Turning to `Cc1nc2sc(C(=O)NCc3ccc(Cl)cc3)c(NC(=O)c3ccccc3)c2c(C)c1C`, the “activation” value is inactive: -3.45%. `Cc1ccc(CNC(=O)CCCCn2c(=O)c3ccccc3n(Cc3ccc(Cl)cc3)c2=O)cc1`: the “activation” value is inactive: 10.8%. Next, `O=C(Nc1ccc2nc(SCC(=O)N3CCCC3)sc2c1)c1ccc(F)cc1`: inactive: -16%; `COC(=O)C(C)Sc1nc2c([nH]c3ccccc32)c(=O)n1-c1ccc(OC)cc1` (stereo unspecified): inactive: -17.8%; `Cc1ccc(NC(=O)NCc2cccn2Cc2ccccc2)cc1F`: inactive: -17.9%.

Take `Cc1ccc(-c2cn3c(n2)sc2cc(C(=O)N4CCCCC4)ccc23)cc1`: the “activation” value was inactive: 0.83%. With `Cc1cc(C)c2c(=O)cc(C(=O)Nc3ccc(S(=O)(=O)Nc4nc(C)cc(C)n4)cc3)oc2c1`, the “activation” value was inactive: -18.9%. Next, `Cc1cc(Nc2cccc(Cl)c2C)n2nc(Cc3ccccc3)nc2n1`: inactive: -13%; `COc1ccc(CNC(=O)CCCn2c(SCC(N)=O)nc3cc4c(cc3c2=O)OCO4)cc1`: inactive: -13.3%; `COc1cc(Cl)c(C)cc1NC(=O)c1cn(CC(C)C)c(=O)c2cc(OC)c(OC)cc12`: inactive: -15.2%.

`CCOc1ccccc1NC(=O)Cn1c(=O)n(Cc2ccccc2)c(=O)c2c(C)c(C(=O)N(C)C)sc21`: the “activation” value is inactive: -10.8%.

Regarding `CCN(CC)C(=O)CSc1nc2cc3c(cc2c(=O)n1Cc1ccc(C(=O)NCCc2ccc(OC)c(OC)c2)cc1)OCO3`, the “activation” value was inactive: -11.3%. As for `COc1cc(CN(CC2CCCO2)C(=O)c2ccccc2F)cc(OC)c1OC` (stereo unspecified), the figure is inactive: -1.53%; as for `Cc1cc(C)c(NC(=O)Cn2c(=O)n(CCCCC(=O)NCc3ccccc3Cl)c(=O)c3ccccc32)c(C)c1`, inactive: -5.6%; as for `CC(C)OCCCNC(=O)CCCn1c(SCC(=O)c2ccc(Br)cc2)nc2c(sc3ccccc32)c1=O`, inactive: 0.523%.

Turning to `CC(NC(=O)c1ccccc1)c1nc2ccccc2n1Cc1ccc(Cl)cc1` (stereo unspecified), the “activation” value is inactive: -21.1%. In the case of `COc1ccc(CNC(=O)c2cnn3c(C)c(Cc4ccc(F)cc4)c(C)nc23)cc1`, the “activation” value is inactive: -18.2%. Consider `COc1ccc(C(=O)Nc2ccc3nc4n(c(=O)c3c2)CCCCC4)cc1OC`, for which the “activation” value is inactive: -13.5%. For `CCOc1ccc(NC(=O)CN2C(=O)COc3ccc(S(=O)(=O)Nc4ccccc4)cc32)cc1`, the “activation” value is inactive: -10.7%. As for `Cc1ccc(OCCSc2nc3ccccc3n2CC(=O)N2CCOCC2)c(C)c1`, the “activation” value is inactive: 12.1%. On to `Cc1ccc(Cl)cc1NC(=O)Cn1nc2c(cc1=O)CC(C)CC2` (stereo unspecified), for which the “activation” value was inactive: -7.6%. As for `CC(C)Cn1c(=O)c2ccccc2n2c(-c3cccc(Cl)c3)nnc12`, the figure is inactive: -15.5%; as for `COc1ccc(C(=O)NCc2nnnn2-c2ccc(C)c(C)c2)cc1`, inactive: -13.1%; as for `COc1ccc(Cl)c(Cn2c(NCCN)nc3c2c(=O)n(C)c(=O)n3C)c1`, inactive: -24.6%.

As for `CCC(=O)N1CCc2cc(Br)cc(S(=O)(=O)N3CCC(C(=O)NC(C)(C)C)CC3)c21`, the “activation” value was inactive: -10.2%. As for `O=C(NNc1ncnc2c1cnn2-c1ccccc1)c1cccc(Cl)c1`, the figure is inactive: -13.4%; as for `CCCOc1ccccc1Cn1c(=O)sc2ccccc21`, inactive: -15.9%; as for `Cc1ccc(Cl)cc1Nc1nc2ccccc2n2c(C)nnc12`, inactive: -14.3%.

As to `N#Cc1ccc(-c2cccs2)nc1SCc1ccc(Cl)cc1Cl`, the “activation” value was inactive: -15.5%.

Consider `CCOc1ccc(NC(=O)N2CCOc3ccccc32)cc1`, for which the “activation” value was inactive: -20.5%. Consider `Cc1ccnc(NC(c2ccccc2F)c2ccc3cccnc3c2O)c1` (stereo unspecified), for which the “activation” value was inactive: -22%. For the molecule `CCc1ccccc1NC(=O)CSc1nnc(-c2nonc2NC(C)=O)n1C`, the “activation” value is inactive: -12%. As for `Cc1[nH]c(=O)[nH]c(=O)c1C1N2CC3(C(C)C)CN1CC(C(C)C)(C2)C3=O` (stereo unspecified), the “activation” value is inactive: -26.5%. As to `Cc1ccc(N2CCn3c2nc2c3c(=O)n(CCc3ccccc3)c(=O)n2C)cc1C`, the “activation” value was inactive: -9.77%. With `CCOC(=O)c1ccc(NC(=O)CN2C(=O)c3cccnc3Oc3ccc(Cl)cc32)cc1`, the “activation” value was inactive: -2.74%. As for `CN(CCOc1ccc(NS(C)(=O)=O)cc1)CCc1ccc(NS(C)(=O)=O)cc1`, the figure is inactive: -12.4%. Next, `CCCCc1nn2c(=O)cc(COC(=O)c3ccccc3NC(=O)C(C)(C)C)nc2s1`: inactive: 1.34%; `Cc1cc(NS(=O)(=O)c2ccc(NC(=O)COc3ccc(Br)cc3C)cc2)no1`: inactive: -15.7%.

`CCc1ccc(-n2c(C)nnc2SCc2nc(-c3ccc(OC)cc3)no2)cc1`: the “activation” value is inactive: -7.95%. `Cc1ccc(NC(=O)CCSCCc2ccccn2)cc1`: the “activation” value is inactive: -8.76%. For `Cc1ccc(-c2cc3ncc(C(=O)c4cc([N+](=O)[O-])ccc4O)cn3n2)cc1`, the “activation” value was inactive: 9.64%. As for `O=C(Nc1ccc(Cl)cc1Cl)c1cc(S(=O)(=O)N2CCN(c3ccccc3F)CC2)ccc1F`, the “activation” value is inactive: -19.4%. `Cc1ccn2c(c1)nc(=O)c1cc(S(=O)(=O)N3CCC(C)CC3)c(Cl)cc12`: the “activation” value is inactive: -14.1%. Turning to `CCCCN(C)CCNC(=O)c1cc(-c2cccnc2)nc2ccc(S(=O)(=O)N3CCC(C)CC3)cc12`, the “activation” value was inactive: -12.9%. As to `O=C(COc1ccccc1F)Nc1ccc(C(=O)OCc2cc(=O)n3nc(C4CC4)sc3n2)cc1`, the “activation” value is inactive: -8.37%. As for `CN(Cc1ccccc1)c1nc(-c2ccc(F)cc2)cc(C(F)(F)F)n1`, the figure is inactive: -25.3%; as for `CC(C)(C)OC(=O)N1CCC(c2c(C(=O)NCc3ccc4c(c3)OCO4)cnn2-c2ccc(F)cc2F)CC1`, inactive: -5.51%; as for `O=C(Nc1ccc(Cl)cc1)C1CCN(c2nc3ccccc3n3cccc23)CC1`, inactive: -3.76%. As to `CCC(Oc1ccccc1F)C(=O)Nc1c(C(=O)c2ccccc2)oc2ccccc12` (stereo unspecified), the “activation” value is inactive: -13.3%. For `COc1ccc(Br)cc1CNC(=O)CCCn1c(=O)c2cccn2c2ccccc21`, the “activation” value is inactive: -7.88%. Consider `CC1=C(C)C(=O)C(CCCCC#CCCCC#CCO)=C(C)C1=O`, for which the “activation” value is inactive: -14.7%. As for `Cc1cccc(-c2nc3c(C#N)c[nH]n3c2NC2CCCCC2)c1`, the “activation” value was inactive: -5.4%. In the case of `COc1cc(C(=O)NCC(c2cccnc2)N2CCN(c3ccc(F)cc3)CC2)cc(OC)c1OC` (stereo unspecified), the “activation” value was inactive: -8.3%. For the molecule `Cc1nn(-c2ccc3nncn3n2)c(C)c1CCC(=O)Nc1ccc(OC(F)(F)F)cc1`, the “activation” value was inactive: -21.7%.

Source of the values: PubChem BioAssay AID1159614 (National Center for Advancing Translational Sciences (NCATS), 2016).
